From article PMC7324386
These are yes or no findings as the source states them, for the method shown. For part of these data: In cells and extracts the contact can be indirect. Some entries that bind do so weakly or less than the wild type. Where a sequence is shown, tags or fusion partners need not be part of it. One block for each binder: values may come before it.

Chains of the proteins cited; added tags and fusions are not shown.
UniProt P54609: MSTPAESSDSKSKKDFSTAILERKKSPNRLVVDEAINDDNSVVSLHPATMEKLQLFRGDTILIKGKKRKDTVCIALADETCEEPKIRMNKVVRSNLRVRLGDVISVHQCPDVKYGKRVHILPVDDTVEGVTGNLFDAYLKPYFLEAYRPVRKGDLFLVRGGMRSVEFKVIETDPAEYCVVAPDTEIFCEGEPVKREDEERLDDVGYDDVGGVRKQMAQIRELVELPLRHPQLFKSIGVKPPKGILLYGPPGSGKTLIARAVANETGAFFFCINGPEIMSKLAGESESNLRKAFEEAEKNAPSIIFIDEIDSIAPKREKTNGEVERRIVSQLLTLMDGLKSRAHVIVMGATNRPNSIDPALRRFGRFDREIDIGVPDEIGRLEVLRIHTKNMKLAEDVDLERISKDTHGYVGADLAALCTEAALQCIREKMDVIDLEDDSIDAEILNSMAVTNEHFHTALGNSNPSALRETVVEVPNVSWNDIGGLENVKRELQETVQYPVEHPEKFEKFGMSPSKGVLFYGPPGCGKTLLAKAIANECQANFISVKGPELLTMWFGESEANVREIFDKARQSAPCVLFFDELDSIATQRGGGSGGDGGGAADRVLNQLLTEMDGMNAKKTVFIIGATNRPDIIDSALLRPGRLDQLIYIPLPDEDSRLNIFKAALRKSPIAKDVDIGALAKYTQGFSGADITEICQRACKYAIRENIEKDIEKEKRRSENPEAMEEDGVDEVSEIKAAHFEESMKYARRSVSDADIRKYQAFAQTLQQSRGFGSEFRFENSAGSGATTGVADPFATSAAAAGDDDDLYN

Columns and labels:
[1] = target: CDC48A (yeast two-hybrid fusion) (Arabidopsis thaliana) (UniProt P54609); assay: two-hybrid; GAL4 system (pGBKT7, pGADT7), Y187 and Y2HGold mated, diploid yeasts on QDO medium (SD-Leu/-Trp/-His/-Ade), 30 °C, 3 days
[2] = target: T1, KAKU4 (BiFC YFP construct) (Arabidopsis thaliana) (UniProt Q949W6); assay: split reporter; BiFC YFP constructs with free mCherry transiently coexpressed in N. benthamiana, epidermal cells imaged 48 h after infiltration
T1 sequence: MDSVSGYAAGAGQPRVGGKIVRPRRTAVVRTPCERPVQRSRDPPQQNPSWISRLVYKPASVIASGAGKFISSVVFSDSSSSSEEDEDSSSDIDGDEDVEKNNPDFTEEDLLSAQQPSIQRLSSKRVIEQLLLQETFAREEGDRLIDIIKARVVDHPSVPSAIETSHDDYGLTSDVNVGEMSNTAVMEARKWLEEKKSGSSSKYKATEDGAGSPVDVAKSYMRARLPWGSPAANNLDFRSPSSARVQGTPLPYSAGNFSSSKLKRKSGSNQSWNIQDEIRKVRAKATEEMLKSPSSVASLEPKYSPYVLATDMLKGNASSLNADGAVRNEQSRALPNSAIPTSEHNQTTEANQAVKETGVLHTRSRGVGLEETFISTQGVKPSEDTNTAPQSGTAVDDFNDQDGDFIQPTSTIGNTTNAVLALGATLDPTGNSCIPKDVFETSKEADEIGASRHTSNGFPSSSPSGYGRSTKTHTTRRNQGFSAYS

[3] = target: T2, SUN1 (BiFC YFP construct) (Arabidopsis thaliana) (UniProt Q9FF75); assay: as above
T2 sequence: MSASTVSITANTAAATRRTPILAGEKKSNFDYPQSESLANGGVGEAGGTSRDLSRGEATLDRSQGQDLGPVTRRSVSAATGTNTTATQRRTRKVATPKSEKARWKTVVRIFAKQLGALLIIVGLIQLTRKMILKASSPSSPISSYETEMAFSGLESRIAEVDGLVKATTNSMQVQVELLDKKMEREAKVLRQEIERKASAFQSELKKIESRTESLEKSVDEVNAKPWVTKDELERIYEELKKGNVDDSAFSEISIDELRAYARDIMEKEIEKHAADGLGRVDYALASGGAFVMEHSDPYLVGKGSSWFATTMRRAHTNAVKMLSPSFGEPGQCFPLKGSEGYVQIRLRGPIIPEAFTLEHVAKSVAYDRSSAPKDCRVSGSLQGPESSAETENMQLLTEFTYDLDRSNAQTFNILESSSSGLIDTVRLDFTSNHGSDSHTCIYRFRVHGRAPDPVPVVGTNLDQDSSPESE

[4] = target: T3, PUX4-HA (Arabidopsis thaliana) (UniProt Q8RWU7); assay: co-IP; transient coexpression in N. benthamiana leaves; protein extract immunoprecipitated with anti-HA antibody, immunoblotted with anti-HA and anti-GFP
T3 sequence: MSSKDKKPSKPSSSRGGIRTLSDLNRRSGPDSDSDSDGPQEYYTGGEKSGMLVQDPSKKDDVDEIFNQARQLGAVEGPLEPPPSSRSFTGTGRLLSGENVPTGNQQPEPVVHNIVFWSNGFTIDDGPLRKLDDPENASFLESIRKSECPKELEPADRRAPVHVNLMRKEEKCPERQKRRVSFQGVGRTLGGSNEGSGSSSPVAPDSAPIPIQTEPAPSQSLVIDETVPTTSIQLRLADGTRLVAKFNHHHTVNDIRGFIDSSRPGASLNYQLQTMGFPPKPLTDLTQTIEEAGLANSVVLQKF

[5] = target: T4, PUX5-HA (Arabidopsis thaliana) (UniProt Q7Y175); assay: as above
T4 sequence: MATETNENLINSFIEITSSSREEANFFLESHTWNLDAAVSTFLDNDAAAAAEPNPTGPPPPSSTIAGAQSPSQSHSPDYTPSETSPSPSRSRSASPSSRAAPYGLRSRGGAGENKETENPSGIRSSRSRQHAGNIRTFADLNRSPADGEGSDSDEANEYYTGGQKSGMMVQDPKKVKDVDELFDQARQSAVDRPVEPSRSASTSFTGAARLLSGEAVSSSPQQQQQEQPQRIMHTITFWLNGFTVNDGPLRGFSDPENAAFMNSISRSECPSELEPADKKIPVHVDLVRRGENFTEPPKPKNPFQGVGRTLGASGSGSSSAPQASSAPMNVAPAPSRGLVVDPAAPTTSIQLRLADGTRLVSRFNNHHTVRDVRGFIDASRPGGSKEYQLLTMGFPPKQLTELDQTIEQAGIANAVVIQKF

[6] = target: T5, PUX7-HA (Arabidopsis thaliana) (UniProt Q94JZ8); assay: as above
T5 sequence: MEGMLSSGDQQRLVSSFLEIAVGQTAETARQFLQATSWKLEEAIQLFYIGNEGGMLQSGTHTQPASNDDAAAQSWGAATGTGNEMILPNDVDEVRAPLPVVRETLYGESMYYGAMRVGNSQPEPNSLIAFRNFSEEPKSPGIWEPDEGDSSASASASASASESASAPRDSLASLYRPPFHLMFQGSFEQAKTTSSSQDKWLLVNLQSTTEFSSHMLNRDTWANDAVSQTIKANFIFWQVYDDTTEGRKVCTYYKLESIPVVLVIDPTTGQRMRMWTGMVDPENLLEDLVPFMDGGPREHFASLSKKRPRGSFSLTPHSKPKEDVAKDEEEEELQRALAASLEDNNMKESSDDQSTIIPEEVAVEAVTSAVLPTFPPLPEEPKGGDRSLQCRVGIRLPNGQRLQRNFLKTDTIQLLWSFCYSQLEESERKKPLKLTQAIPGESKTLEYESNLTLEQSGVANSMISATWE

- binding [4]: binds
- binding [5]: binds
- binding [6]: no binding
B3: GFP-SUN1 (protein, UniProt Q9FF75 1-471)
chain: T2 sequence

- binding [2]: binds
B4: PUX3 (BiFC YFP construct) (protein, UniProt Q9SUG6 1-302)
chain: MSSKDKKLSKPTSGRTGGIRTLSDLNRRSEPDSDSDSDGPQEYFTGGEKSGMLVQDPTKEPKHDDVDEIFNQARQLGAVEGPLEHPSSSRSFTGTGRLLSGESVPTALQQPEPVIHNIIFWSNGFTVDDGPLRKLDDPENASFLDSIRKSECPKELEPVDKRAPVHVNLMRRDEKCPEKEKLKVSFQGVGRTLGGASSSTASSQSNLTDVAAVQSPLQSLVVDETLPSTSIQLRLADGTRMVAKFNNHHTVNDIRGFIEFSRPGNPNNYTLQVMGFPPKPLTDPSQTIEQAGLASSVVIQKF

- binding [1]: binds
B6: UFD1B (yeast two-hybrid fusion) (protein, UniProt Q9SJV0 1-340)
chain: MVLRFCCHLLTYSVSLLPPITMFFDGYHYHGTTFEQSYRCYPASFIDKPQLESGDKIIMPPSALDRLASLHIDYPMLFELRNAGIERVTHCGVLEFIAEEGMIYMPYWMMQNLLLQEGDIVRVRNVTLPKGTYVKLQPHTTDFLDISNPKAILETALRNYSCLTSGDSIMVPYNNKKYFIDIVETKPANAISIIETDCEVDFAPPLDYKEPERPTAPSAAKGPAKAEEVVDEPEPKFNPFTGSGRRLDGRPLAYEPAPASSSKGKQPVVANGNGQSSVASSSEKATRAQGKLVFGANGNRAPKEAAPKVGAAKETKKEEQEKKDEPKFQAFSGKKYSLRG

Second part, the binder before the results:

B1: PUX4 (yeast two-hybrid fusion) (protein, UniProt Q8RWU7 1-303)
chain: T3 sequence
- binding [1]: binds

B2: PUX4 (BiFC YFP construct) (protein, UniProt Q8RWU7 1-303)
chain: T3 sequence
- binding [2]: binds
- binding [3]: binds weakly

B5: PUX5 (BiFC YFP construct) (protein, UniProt Q7Y175 1-421)
chain: T4 sequence
- binding [2]: binds

B7: GFP-WIT1 (protein, UniProt Q8L7E5 1-703)
chain: METETEHDRTVSVDDNDSLVPEPSSTKESFFEDLSLTGQVMNPQLSSAGEVLTKVELDFAFVSEKLVNLSLLTMQLGTRENDFESFVSKKEEDEEEPSSNVDDDDDSAEKALEFDLLSSILNSEVKELESLLGFLQNEIQSARVMISPFQHDGEAFLDLEGKLNDTEQSLGQLMEQVVEMKKQSSNFQRLSSGLDEQGSWSGGQTSVSQNDGEFGDLSAKINMQTADQQRNVLRMLEKSLAKEMELEKKLSESRNTERELEMKLYSSEQDVVYMEEVTEDAFSRWLEADNAAEVFKGTSKEMSGKLQILQFNLSGSFKREDNLKSKLVDSKERLEAKECALHKLDSSNARLADFLVAQTEGLKESLQEAEEKLILLNTENSTLSEKVSSLEEQLNEYGIQTEDADATSGALITDLERINEELKDKLAKTEARAEETESKCKILEESKKELQDELGNFRDKGFTIHKLASLEKHLRDSDLQLEHAVAAVEASKEKQNLLYSTVSDMEDVIEDLKSKVLKAENRADITEEKLIMVSESNAEVNEELKFFKGRLKEGEKYLQQAEERKLRTAKDIGVHNKIMKKLVMQLAAERERLHKQITNLSRENCVLMVKLKKVGKTGYMESGNGSEVSPKSDQNASSCHQGSRLQATFISLTNPEEEETGSKSDIGSVRRLDVGALRFKHILVAILVILISSIAYVISQQNM
- binding [4]: no binding

B8: ARA6-GFP (protein, UniProt Q9CB01 1-202)
chain: MGCASSLPDRNSGTLSGLSNSENAVPADAKNLRVKLVLLGDSGVGKSCIVLRFVRGQFDATSKVTVGASFLSQTIALQDSTTVKFEIWDTAGQERYSALAPLYYRGAGVAVIVYDITSPESFKKAQYWVKELQKHGSPDIVMALVGNKADLHEKREVPTEDGMELAEKNGMFFIETSAKTADNINQLFEEIGKRLPRPAPSS
- binding [4]: no binding

B9: UFD1C (yeast two-hybrid fusion) (protein, UniProt Q8W570 1-311)
chain: MFYDGYAYHGTTFEQTYRCYPSSFIDKPQIESGDKIIMPPSALDRLASLQIDYPMLFELRNASTDSFSHCGVLEFIAEEGVIYIPYWMMQNLLLQEGDMVRVRNVTLPKGTYVKLQPHTTDFLDIANPKAILETALRNYSCLTVGDSIMVPYNNKKYFIDIVEAKPSNGISIIETDCEVDFAPPLDYKEPERPVAPAPAKAKEVDVAEAEPKFNPFTGSGRRLDGRPLSYEPQPGAANSNGQSHPVASSSSSGSEKATQQNRGKLVFGSNVERSTKETTKVGAGKDRKQEEEAEKEAKFQAFSGKKYSLRG
- binding [1]: binds
